22 molecules from paper PMC12136788 can be followed below.

The labels stand for the following.
B1: 131292330_131293032_335_3pUTR_ENSMUSG00000049047_ENSMUST00000081834|mouse|control|control (ssRNA)
RNA: GGGAGUUCUACAGUCCGACGAUCCUUCUUCAAGUCACUUCAAGGCCACAGUAAUUGCUUACAGAGGUAAACCUCCUUAAAACAGCAGCUUGCCCCUUCUUCCUUUCCUGUGGGUUAUGCCACGCCCAACAGUCUUUCUGAUCUCAACAGAGGAUUGAGCAUCA
B2: chr12:42180722:42180723:-_ENSMUSG00000036295_ENSMUST00000043884|mus_hu|mus_mus_mus_hu_True|38_88 (ssRNA)
RNA: GGGAGUUCUACAGUCCGACGAUCCUGUAGGAGAAGAAUCUGUGUGUCGGCAGGCAAUCUGGCUGGGAAAGUUAAAAGACCUAAAUCAUUACAAUCCACUGUCGAUGCUUCCAUAUAAAUGGAUCUGGGUGUAAACCAAGGCCUCAACAGAGGAUUGAGCAUCA
B3: 85785137_85785257_2890_3pUTR_ENSG00000153904_ENST00000284031|human|control|control (ssRNA)
RNA: GGGAGUUCUACAGUCCGACGAUCGUAAGCCUAAACUGGCAGAUUGGGCCAUUUUUCCUGUGGUUGUAUUUGAGAUGUUGAGCUCUCACAGGGAGAAUUUUUGCUUUUGCCAAGGAAGGGCCAGAUUUAACCCAAAAGGACAACCAACAGAGGAUUGAGCAUCA
B4: 183092267_183096352_435_3pUTR_ENSMUSG00000062169_ENSMUST00000134115|mouse|control|control (ssRNA)
RNA: GGGAGUUCUACAGUCCGACGAUCGGCUUCUCCAGCUUCAGUCAUUUAUCAAAGCUAGAAUCAUACUAUAGAGAUACAUGAAGAAACAGAGCAGGUAGAAACCAAGCUUGAUCAUGGCUUCUUUCAUGUGUGACUUUAACUGUCCAACAGAGGAUUGAGCAUCA
B5: chr6:41757443:41757444:+_ENSG00000214736_ENST00000398881|hu_mus|hu_hu_hu_mus_False|1_28 (ssRNA)
RNA: GGGAGUUCUACAGUCCGACGAUCGAACCGUGCAGAGGCAACAUCUCAGCCGACACUGGGGGAUGGGGGGGCAGUGGGGGGGGGUUCAGGCAAGGAGAGGGAGUCAACCCAUCUGAACACUCAGGUAGGAUCUUGUGGGGCACACAACAGAGGAUUGAGCAUCA
B6: 3726484_3727692_3388_CDS_ENSG00000110713_ENST00000324932|human|control|control (ssRNA)
RNA: GGGAGUUCUACAGUCCGACGAUCGAUUUCUUGAGAAGUAUCUGCUUUGGAAGGCAGGCGACUGAAGCGUUGAUCCAGUGCCAUAUCUACAUCUUCUUCAUCAGUAAGCAAUGAUGCUUUCAUGAUCUGUAAGACAUGUGGAUUCAACAGAGGAUUGAGCAUCA
B7: chr8:104447970:104447971:+_ENSG00000164934_ENST00000297579|hu_hu|hu_hu_hu_mus_False|58_78 (ssRNA)
RNA: GGGAGUUCUACAGUCCGACGAUCAUACACUUCCCUGCUUCGGCUCUUGUCCACAGGAAAGAUUCGAAUAGACUUAUCGAAACUAGCAGACACAAAUUCCUUCCCAGUGGGAGAGUAGUCCACAUCAAGUACUGCAGACACGUGCAACAGAGGAUUGAGCAUCA
B8: chr7:149068622:149068623:-_ENSMUSG00000025139_ENSMUST00000001950|mus_hu|mus_mus_mus_hu_False|58_88 (ssRNA)
RNA: GGGAGUUCUACAGUCCGACGAUCGUGAGGCCUCUGAGUGUGGCUUGUGCUCUGCAGUGGGUUAGAGUUGUUAAUAUCACUAAGUGGACCAUCUAGAACGUUCCAGUCCCGCCUGACACCUUCAUUCCCAAUGGAGAAGAAAUCCAACAGAGGAUUGAGCAUCA
B9: chr7:116544294:116544295:+_ENSG00000198898_ENST00000458284|hu_hu|FALSE|FALSE (ssRNA)
RNA: GGGAGUUCUACAGUCCGACGAUCUACUUCACAGGGUCUUGGAUCAGUUGCCUCCUUCCUUAAGUGAUCAAAUUUAAAACAGAUUCUGUUCUUUGGAUCCAAAAACUUUCCAUUUCCCAAGUCGCCAUGUUCUGUUAUCAAUACCAACAGAGGAUUGAGCAUCA
B10: chr4:128986876:128986877:-_ENSMUSG00000057236_ENSMUST00000102598|mus_mus|FALSE|FALSE (ssRNA)
RNA: GGGAGUUCUACAGUCCGACGAUCGAUGGUGAGACAGGUCAACCAAAAUGGAGAUGGCAUCAAACUAUAGUGGUCAAAGACUAACCCCUAAAAAAGCAACUUUUAUCAAGGAUUAAUUUAAUCUUAAAAACAAACACAAACUAGCAACAGAGGAUUGAGCAUCA
B11: chr2:5814250:5814251:-_ENSMUSG00000025816_ENSMUST00000102981|mus_hu|mus_mus_mus_hu_True|58_108 (ssRNA)
RNA: GGGAGUUCUACAGUCCGACGAUCUUCCUUUCAGGCUUCUGAAUUUCUGGUAGAACUGCACAGAAUGGUUUGAUAACUUCUAAAAACUUGAUGCCCAUGGCUGCUGCUGGGGAGGCCCAGGGGGAAACCGCGGCCUCGGCGCUGCAACAGAGGAUUGAGCAUCA
B12: chr19:26852702:26852703:+_ENSMUSG00000024921_ENSMUST00000025862|mus_mus|FALSE|FALSE (ssRNA)
RNA: GGGAGUUCUACAGUCCGACGAUCAUUACUGGAAUUUUAUUUGCCUCAGGCUUAUGACUUGCAACCAAAGACAUUGUGCAAAGAAAGCAAAGAUUAAGUACACUUUCGGGAGAAGGAGACCAUACACAUUGGUAACACGGGAGACAACAGAGGAUUGAGCAUCA
B13: chr2:228220401:228220402:+_ENSG00000168958_ENST00000354503|hu_hu|motif|central (ssRNA)
RNA: GGGAGUUCUACAGUCCGACGAUCUAGUGAAGCUGCAUCUACAACAGUCAGGUCAUCUGACGUUCCUUCAAUGGUUGUAUCGGUAUUUGAAAUGCCAUACAGAGAAUCAUUUCUGACCAGCUGUCCAUUUUGGCGAACAGCAUUCAACAGAGGAUUGAGCAUCA
B14: chr11:108043965:108043966:-_ENSG00000149308_ENST00000278612|hu_hu|motif|central (ssRNA)
RNA: GGGAGUUCUACAGUCCGACGAUCAGAAUUAUCUUGGCAAUUUGAUAGCUGUGACAUAACUGGUUCUAACACAUUAAUUUCGGUUUUACUCUUGUGAACUUCACUAGAAUCUGAUGACUUGGAACCAUGAAAAUUAAUUUUAAGCAACAGAGGAUUGAGCAUCA
B15: chr2:48026839:48026840:+_ENSG00000116062_ENST00000540021|hu_hu|hu_hu_hu_mus_False|68_108 (ssRNA)
RNA: GGGAGUUCUACAGUCCGACGAUCAUAGUGUGCCACUAGCGUCCUAAAUCUGGAACAGUGGCGGUCAUCUGAAAACUGGCCGAUGAAAAACUUGCCCAGUGAAGUGUCCACAAAGCAAACACCAUACACACGAGUGUGACCAGACAACAGAGGAUUGAGCAUCA
B16: chrX:69798090:69798091:-_ENSMUSG00000031343_ENSMUST00000055966|mus_mus|mus_mus_mus_hu_False|18_28 (ssRNA)
RNA: GGGAGUUCUACAGUCCGACGAUCAAGUCCCCGGGUUCUUGUCGUCUUGAUUCCCCUUGACCAGUGGUUCCAGGGAGAAUAUUAAUCAGGAAAAGAAUCCCAAGGCUGGUCACAUAAAAGUGCCACAUUUGUGUGAUUAUCAUCCAACAGAGGAUUGAGCAUCA
B17: chr5:173383253:173383254:+_ENSG00000113742_ENST00000334035|hu_hu|motif|central (ssRNA)
RNA: GGGAGUUCUACAGUCCGACGAUCAAAACACCUAUAUUAUAGGUCAUUCUUUUCAUUAUACUAUAGUUAAGUUACAGACUGCGGCAAAAGGACAUGCCAGCGUGAAGAGGUUGAGGAAGGGGUCAGAAUGAACAGAAGAGUGCACAACAGAGGAUUGAGCAUCA
B18: chr5:135702403:135702404:+_ENSMUSG00000002748_ENSMUST00000002825|mus_mus|motif|central (ssRNA)
RNA: GGGAGUUCUACAGUCCGACGAUCGUCACACAGGAACCAUAAGUUUUGUCCUUGCUUGGGCACAGUGGUCUCCACAGCUUCGGGUGCUGGUCCAUGGUGCGCAUUCACACUUGCAUUCUUGCCUAGGUUUGCUUUCUUACUUCGCAACAGAGGAUUGAGCAUCA
B19: chr17:64801638:64801639:+_ENSG00000154229_ENST00000413366|hu_hu|FALSE|FALSE (ssRNA)
RNA: GGGAGUUCUACAGUCCGACGAUCAUCAAAUACAUAUAUAUACACACACAUAUGUAGUAAGAGCCUAAUCUAUCACGUAAACUAGCCAUUCAUUUUUGAAAUUUUAUCUACAUUUAAAAAGUAAUCUAUCUGAUACAGUGCCCACAACAGAGGAUUGAGCAUCA
B20: chr2:179515052:179515053:+_ENSMUSG00000000305_ENSMUST00000000314|mus_hu|mus_mus_mus_hu_False|28_98 (ssRNA)
RNA: GGGAGUUCUACAGUCCGACGAUCGCUGUCCCAUGCAGUGACGGUAAACGCCACCUGCUCGGAGGGGACCUGCAGCUCCCGGGUGGCGAAGACUGUCCCAUCUGCCCCGACUUUGAAGUCCAUGCUGUUGGUCUCAUAUUGUGUCAACAGAGGAUUGAGCAUCA
B21: 28747954_28748754_1226_3pUTR_ENSG00000108582_ENST00000225719|human|control|control (ssRNA)
RNA: GGGAGUUCUACAGUCCGACGAUCCUGAGAUGGUUGCAUUCUCUAACCCAGAUCCUGUUAUGGAAUCUUUAACAAAUCCUUUCACUCCAAUGUGAACCUUUUCAAUCAAUGUGAUCAAAGACUCACGAUUGUUCUCCCAUUCCUCAACAGAGGAUUGAGCAUCA
B22: chr7:56127975:56127976:+_ENSG00000146731_ENST00000540286|hu_hu|FALSE|FALSE (ssRNA)
RNA: GGGAGUUCUACAGUCCGACGAUCUGGUCCUUUGAUCAAUAAUGUGACAGAACGAGGGUUGUUACAUUUCUCAAUAAAGGUAAACUUCUCUUCUCCCAAUGUAUACUCAUAUACAAGUCCUGCAUGUCCCAAGCAGUCAGGACUCAACAGAGGAUUGAGCAUCA

The list shows a part of the results.

In the experiment the target is T1, UNK ZnF1-3 (human, UniProt Q9C0B0 31-174).
T1 sequence: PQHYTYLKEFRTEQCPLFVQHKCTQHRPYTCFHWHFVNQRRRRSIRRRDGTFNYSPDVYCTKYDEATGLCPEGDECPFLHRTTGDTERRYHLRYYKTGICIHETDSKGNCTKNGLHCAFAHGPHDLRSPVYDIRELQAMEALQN
Nature of the experiment: nsRBNS (natural sequence RNA bind-n-seq); RBNS binding buffer (assumed for nsRBNS): 25 mM Tris pH 7.5, 150 mM KCl, 3 mM MgCl2, 0.01% Triton X-100, 500 ug/ml BSA, 20 U/ml SUPERase-In, 4 C; UNK is unkempt and MSI1 is Musashi-1; names of the RNAs are library labels; protein concentration not given here; high values mean tight binding.
Take B1: the binding signal turned out to be 0.652 enrichment R. The same measure for B2: 1.39 enrichment R. The same measure for B3: 1.06 enrichment R; for B4: 0.926 enrichment R.

With B5, the binding signal amounted to 2.21 enrichment R. The same measure for B6: 0.662 enrichment R. The value for B7 was 0.827 enrichment R. The same measure for B8: 0.727 enrichment R. Consider B9, for which the binding signal is 0.978 enrichment R. The same measure for B10: 1.7 enrichment R; for B11: 1.36 enrichment R; for B12: 1.64 enrichment R. On to B13, for which the binding signal is 0.487 enrichment R. The same measure for B14: 0.729 enrichment R.

In the case of B15, the binding signal turned out to be 1.01 enrichment R. The same measure for B16: 0.783 enrichment R; for B17: 2.7 enrichment R; for B18: 0.551 enrichment R. The same measure for B19: 0.993 enrichment R.

As to B20, the binding signal is 0.807 enrichment R. The value for B21 was 0.547 enrichment R.

As for B22, the binding signal came out at 0.792 enrichment R.
